# Where “and” joins values, the source holds several entries; their conditions need not be identical. Equal values may be shown once. About 3,600 (1.6%) of roughly 230,000 compounds were called active. Inconclusive means that the source gave no clear call. Such entries were picked first, then a sample of the others. The call rests on the fitted dose curve; in most records, active means well fitted inhibition curve with a large enough effect (not every such curve was filed as active); inconclusive means small, poorly fitted or top-dose-only effect, or another doubt; inactive means no such curve, though single readings can be large or run the other way. Potencies beside an inconclusive call are fits to weak or partial responses and may not hold up.
# Target: Lysine-specific demethylase 4E (Homo sapiens) (UniProt B2RXH2)
# Experiment: qHTS Assay for Inhibitors of Human Jumonji Domain Containing 2E (JMJD2E)
# Details: JMJD2E catalytic domain, FDH-coupled NADH fluorescence (FDH is formaldehyde dehydrogenase); series mostly up to 57.1 µM; activity change, negative = inhibition: at the top concentration
# Further: nearly all actives have a fitted effect of over 50% in size.
# Potency means the concentration at half of the fitted maximal effect; tags describe the fitted curve by direction and shape.
# 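Wherever activity change, negative = inhibition is given: 0% = wells with enzyme and -100% = buffer wells without enzyme.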
# Chain of UniProt B2RXH2 (B2RXH2 whole entry, looked up, the tested form may be a part): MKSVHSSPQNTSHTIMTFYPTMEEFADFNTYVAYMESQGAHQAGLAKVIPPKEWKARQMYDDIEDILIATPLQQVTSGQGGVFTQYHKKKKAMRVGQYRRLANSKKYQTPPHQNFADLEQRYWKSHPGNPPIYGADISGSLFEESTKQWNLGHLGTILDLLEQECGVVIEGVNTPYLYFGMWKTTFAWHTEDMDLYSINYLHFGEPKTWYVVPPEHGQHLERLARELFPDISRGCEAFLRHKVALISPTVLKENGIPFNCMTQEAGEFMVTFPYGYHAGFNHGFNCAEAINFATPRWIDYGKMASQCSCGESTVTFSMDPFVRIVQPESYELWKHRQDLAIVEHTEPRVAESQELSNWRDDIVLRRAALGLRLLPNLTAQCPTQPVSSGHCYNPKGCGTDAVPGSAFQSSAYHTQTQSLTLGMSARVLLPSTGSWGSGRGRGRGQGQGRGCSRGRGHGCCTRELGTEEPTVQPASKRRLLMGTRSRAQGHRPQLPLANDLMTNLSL
SMILES,Potency,"activity change, negative = inhibition"
Cc1nn(Cc2ccccc2)c(C)c1C=C1C(=O)NC(=S)NC1=O,"inconclusive: 39.8 µM [inhibitor, single point]",
OCCNc1c2c(nc3ccccc13)CCCC2,,inactive: 6.56%
CN(C)c1cccc2c(C#N)ccc(N(C)C)c12,"inconclusive: 12.6 µM [inhibitor, partial curve]",
O=C(CN1CCCC1)Nc1ccc(Cl)cc1C(=O)c1ccccc1,"inconclusive: 28.2 µM [inhibitor, partial curve, poor fit]",
CC/C(CC(c1ccccc1)c1c(O)c2ccccc2oc1=O)=N\NC(N)=S (stereo not drawn),"inconclusive: 28.2 µM [inhibitor, single point]",
COc1ccc(OC)c(C2=NOC(C(=O)N3CCC4(CC3)OCCO4)C2)c1 (stereo not drawn),"inconclusive: 25.1 µM [inhibitor, single point]",
Cc1cc(C)cc(N2C(=O)/C(=C\c3ccc(N4CCN(C)CC4)o3)C(=O)NC2=S)c1,,inactive: -14.6%
CC(C)C[C@H]1C(=O)N2CCC[C@@H]2[C@@]2(O)O[C@](NC(=O)[C@@H]3C=C4c5cccc6[nH]cc(c56)C[C@@H]4N(C)C3)(C(C)C)C(=O)N12,"inconclusive: 14.1 µM [inhibitor, partial curve]",
CC1CC2(O)c3no[n+]([O-])c3CCC2N1O (stereo not drawn),,inactive: 11.4%
Cn1cc(CCC(=O)N2CCC3(CC2)OCCO3)c2ccccc21,"inconclusive: 39.8 µM [inhibitor, single point]",
Cc1ccc(-n2c(O)c(/C=N/Nc3ccccc3)c(=O)[nH]c2=O)cc1C,"inconclusive: 39.8 µM [inhibitor, single point]",
C/C(=N\Nc1ccccc1)c1c(O)n(C)c(=O)n(C)c1=O,"inconclusive: 20 µM [inhibitor, single point]",
Cc1cc([N+](=O)[O-])c2ccccc2[n+]1[O-],"inconclusive: 25.1 µM [inhibitor, single point]",
COc1ccc(C(C)=O)cc1CC(C(=O)c1ccc(C)c(C)c1)N(C)C (stereo not drawn),,inactive: -2.77%
COc1cccc(N2CCN(Cc3ccc(Cl)cc3)CC2)c1,active: 20 µM,
c1ccc2c(CCNC3=NCCC3)c[nH]c2c1,,inactive: 6.27%
CNC(=O)Oc1cccc(-c2cn3cc(Cl)ccc3n2)c1,"inconclusive: 20 µM [inhibitor, partial curve]",
COc1cccc(CCNCc2c(F)cccc2F)c1,"inconclusive: 28.2 µM [inhibitor, single point]",
CCN(CC)Cc1c[nH]c2ccccc12,"inconclusive: 12.6 µM [inhibitor, partial curve]",
NC(=S)/N=C/c1c(O)[nH]c(=O)[nH]c1=O,"inconclusive: 39.8 µM [inhibitor, single point]",
Cc1ccc(S(=O)(=O)N(C)CCCC(=O)N2CCN(c3ccccn3)CC2)cc1,"inconclusive: 28.2 µM [inhibitor, partial curve]",
CCOc1ccccc1N1CCN(Cc2cccc(OC)c2OC)CC1,"inconclusive: 39.8 µM [inhibitor, single point]",
CC(C)CCn1c(N)c(C(=O)NCc2cccs2)c2nc3ccccc3nc21,"inconclusive: 1.58 µM [inhibitor, full curve]",

SMILES,Potency,"activity change, negative = inhibition"
O=C(N/N=C/c1c(O)n(Cc2ccccc2)c(=O)[nH]c1=O)c1ccccc1O,,inactive: -3.07%
CCOC(=O)c1c(C)n(Cc2ccccc2)c2ccc(OCC(O)Cn3nc(C)cc3C)cc12 (stereo not drawn),"inconclusive: 28.2 µM [inhibitor, single point]",
O=C(CN1CCCCC1c1cccnc1)c1ccccc1 (stereo not drawn),"inconclusive: 14.1 µM [inhibitor, partial curve]",
Cc1c(C(=O)O)cccc1-n1c(C)cc(/C=C2\C(=O)NC(=O)N(c3ccc4c(c3)OCO4)C2=O)c1C,"inconclusive: 20 µM [inhibitor, single point]",
O=C(N/N=C/c1c(O)n(Cc2ccco2)c(=O)[nH]c1=O)c1ccccc1O,"inconclusive: 25.1 µM [inhibitor, single point]",
CN1CCN(c2ccc([N+](=O)[O-])c3no[n+]([O-])c23)CC1,active: 14.1 µM,
O=[N+]([O-])c1cc(F)c(N2CCCCCC2)cc1N1CCNCC1,,inactive: 9.77%
CCC(C)/C=C(C)/C=C/C1=CC2=C(Cl)C(=O)C(C)(OC(C)=O)C(=O)C2=CO1 (stereo not drawn),"inconclusive: 28.2 µM [inhibitor, partial curve]",
c1cnc(N2CCNCC2)nc1,"inconclusive: 39.8 µM [inhibitor, single point]",
Cc1cc(OCC(=O)Nc2c(C)n(C)n(-c3ccccc3)c2=O)c2c3c(c(=O)oc2c1)CCC3,"inconclusive: 12.6 µM [inhibitor, partial curve]",
CCOP(=S)(OCC)N1CCOCCOCCN(P(=S)(OCC)OCC)CCOCCOCC1,,inactive: 11.4%
CNCc1ccccc1,"inconclusive: 39.8 µM [inhibitor, single point]",
CCOP(=O)(OCC)c1nc(-c2cccc3ccccc23)oc1N1CCCCC1,"inconclusive: 28.2 µM [inhibitor, partial curve]",
OC(CNC1CCCCCCC1)c1ccccc1 (stereo not drawn),"inconclusive: 28.2 µM [inhibitor, single point]",
Cc1ccc(-c2nc3ccccc3c(=O)n2-c2nccs2)cc1,"inconclusive: 39.8 µM [inhibitor, single point]",
NCCc1cc(O)c(O)cc1O,active: 6.31 µM,
C#CCOS(=O)OC1CCCCC1Oc1ccc(C(C)(C)C)cc1 (stereo not drawn),"inconclusive: 35.5 µM [inhibitor, single point]",
CC(C)C1C(=O)N2CCCC2[C@]2(O)O[C@@](NC(=O)[C@@H]3C=C4c5cccc6[nH]cc(c56)C[C@H]4N(C)C3)(C(C)C)C(=O)N12 (stereo partly drawn),"inconclusive: 25.1 µM [inhibitor, partial curve]",
CC(N)[C@H](O)c1ccc(O)c(O)c1 (stereo partly drawn),active: 5.62 µM,
CC1(C)C(=O)C=C[C@@]2(C)C1=C(O)C(=O)[C@@]1(C)C2CC[C@@]2(C)C(c3ccoc3)C[C@H]3O[C@@]321 (stereo partly drawn),,inactive: -0.524%
O=C(Cc1ccccc1)N1CCN(CC2CC3C=CC2C3)CC1 (stereo not drawn),"inconclusive: 35.5 µM [inhibitor, single point]",
Cc1cccc(C(=O)O)c1O,"inconclusive: 31.6 µM [inhibitor, partial curve]",
C=CCn1c(O)c(C(=O)CCCCCC)c(=O)[nH]c1=O,"inconclusive: 39.8 µM [inhibitor, single point]",

SMILES,Potency,"activity change, negative = inhibition"
CCCc1[nH]nc2c1C1(C(=O)N(Cc3ccccc3)c3ccccc31)C(C(=O)OC)=C(N)O2 (stereo not drawn),,inactive: 1.49%
O=c1[nH]c(=O)n(C2CCCCC2)c(O)c1C1NCCc2ccccc21 (stereo not drawn),,inactive: 6.88%
CC(=O)OCC(=O)C1CCC2C3CC=C4CC(O)CC[C@@]4(C)C3CC[C@]12C (stereo partly drawn),,inactive: -5.6%
CN1CCCCC1c1ccc(-c2cccnc2)nc1 (stereo not drawn),"inconclusive: 28.2 µM [inhibitor, single point]",
Nc1nc(N)c2nc(CNc3ccc(C(=O)NC(CCC(=O)O)C(=O)O)cc3)cnc2n1 (stereo not drawn),"inconclusive: 28.2 µM [inhibitor, partial curve] and inconclusive: 12.6 µM [inhibitor, partial curve]",
CC(=O)OC1C(=O)[C@]2(C)C(O)CC3OC[C@]3(OC(C)=O)C2[C@@H](OC(=O)c2ccccc2)[C@]2(O)CC(O)C(C)=C1C2(C)C (stereo partly drawn),"inconclusive: 35.5 µM [inhibitor, single point]",
Cc1cc(C=C2C(=O)NC(=O)NC2=O)c(C)n1-c1cccnc1,,inactive: -19.2%
CN(C)/C=C1/C(=O)NC(=O)N(CCNc2ncc(C(F)(F)F)cc2Cl)C1=O,,inactive: 62%
CCc1ccc2c(CN3CC=C(c4ccccc4)CC3)cc(=O)oc2c1,active: 14.1 µM,
Clc1ccc(N2CCN(Cc3ccccc3Cl)CC2)cc1,"inconclusive: 31.6 µM [inhibitor, single point]",
Clc1ccccc1CNc1nc2ccccc2n2cnnc12,"inconclusive: 31.6 µM [inhibitor, single point]",
N#Cc1c(/N=C/c2c(O)n(Cc3ccco3)c(=O)[nH]c2=O)sc2c1CCCC2,"inconclusive: 22.4 µM [inhibitor, single point]",
CC1C(=O)OC2O[C@]3(C)CC[C@H]4C(C)CCC1[C@]24OO3 (stereo partly drawn),,inactive: 7.52%
O=C(O)c1cccc2c1NC(c1cccc([N+](=O)[O-])c1)C1CC(Sc3ccccc3[N+](=O)[O-])C(Cl)C21 (stereo not drawn),"inconclusive: 12.6 µM [inhibitor, partial curve]",
CCCCCCCCCc1ccc(O)cc1,"inconclusive: 35.5 µM [inhibitor, single point]",
CCCCCCC(=O)N/N=C/c1c(O)n(C(C)CC)c(=S)[nH]c1=O (stereo not drawn),"inconclusive: 39.8 µM [inhibitor, single point]",
COc1ccc(CNc2oc(-c3cccc4ccccc34)nc2P(=O)(OC)OC)cc1,"inconclusive: 35.5 µM [inhibitor, partial curve]",
CC1=C(C)[N+](=O)C2(O)CCCCC2(C)N1[O-] (stereo not drawn),"inconclusive: 39.8 µM [inhibitor, single point]",
CCc1ccc(/C=C(/C#N)C(N)=S)cc1,"inconclusive: 5.01 µM [inhibitor, partial curve]",
CCOc1ccc2oc(C(=O)NN3C(C)CCCC3C)c(C)c2c1 (stereo not drawn),"inconclusive: 28.2 µM [inhibitor, single point]",
CCCc1cc2c(n1CCO)C(C)C1CN(C(=O)c3ccccc3)C(C)(C(=O)OC)C21 (stereo not drawn),"inconclusive: 25.1 µM [inhibitor, single point]",
CC(=O)N(O)[C@@H]1c2cc(C#N)ccc2OC(C)(C)[C@H]1O,"inconclusive: 35.5 µM [inhibitor, single point]",

# From PubChem BioAssay AID2147 (National Center for Advancing Translational Sciences (NCATS), 2009)
